# Reference: patent US4820873A, “Pyrene derivatives” (priority 1984, dated 1989)
# Counter-ions that a name gives are not always drawn. At least one read-out could not be matched to a standard name with certainty.
# Tested on: P388/0 tumor cells
# Experiment: Lymphocytic Leukemia P388/0 Test
# Type: in vivo, CD2-F1 mice
# Settings: median survival time; intraperitoneal, days 1, 5, 9; active if ≥120%; Optimal Dose (mg/kg): 2A 250; 2B 450; 3 120; 4 200; 5A 303; 6 366; 7 220; 8 300; 1A 300; 10 198; 11 300; 13 220; 15 555; 16 1013; 17B 250; 18 300; 19 40; 20G 125; 21C 168; 22D 180; 23B 18O
# Description: Methods for evaluating the antitumor activity of these compounds are essentially those used in the Tumor Panel by the Development Therapeutics Program, Division of Cancer Treatment, National Cancer Institute, A. Goldin, et al., Methods in Cancer Research, Vol. XVI, p. 165, Academic Press (1979). Some modifications in dose level and schedule have been made to increase the testing efficiency.
# CD2-F1 mice, of the same sex, weighing 20±3 g, are used for this test. Control and test animals are injected intraperitoneally with a suspension of ~10^6 viable P388/0 tumor cells on day 0. In each test, several dose levels which bracket the LD20 of the compound are evaluated; each dose level group contains 6 animals. The test compounds are prepared either in physiologic saline containing 0.05% Tween 80 or distilled water containing 5% dextrose and are administered intraperitoneally on days 1, 5, and 9 relative to tumor implant. Doses are on a mg/kg basis according to individual animals' body weights. The day of death for each animal is recorded, the median identified for each group and the ratios of median survival time for treated (T)/control (C) groups are calculated. The criterion for activity is T/C×100≥120%.
row,SMILES,T/C × 100% (Excluding 30 Day Survivors)
1,"OCC(CO)(CO)NCc1ccc2ccc3cccc4ccc1c2c34 [Example 10, 2-Hydroxymethyl-2-((1-pyrenylmethyl)amino)-1,3-propanediol hydrochloride]",+190%
2,"CC(CO)(CO)NCc1ccc2ccc3cccc4ccc1c2c34 [Example 1A, 2-methyl-2-((1-pyrenylmethyl)amino)-1,3-propanediol hydrochloride]",+225%
3,"OCCNCc1ccc2ccc3cccc4ccc1c2c34 [Example 13, 2-((1-Pyrenylmethyl)amino)ethanol hydrochloride]",+131%
4,"CCOCC(CO)(CO)NCc1ccc2ccc3cccc4ccc1c2c34 [Example 21C, 2-Ethoxymethyl-2-((1-pyrenylmethyl)amino)-1,3-propanediol hydrochloride 1/3H2 O]",+130%
5,"CC(C)C(CO)NCc1ccc2ccc3cccc4ccc1c2c34 (stereo not shown) [Example 4, 3-Methyl-2-((1-pyrenylmethyl)amino)butanol hydrochloride]",+127%
6,"CCC(COC(C)=O)(COC(C)=O)NCc1ccc2ccc3cccc4ccc1c2c34 [Example 16, 2-Ethyl-2-((1-pyrenylmethyl)amino)-1,3-propanediol diacetate]",+185%
7,"CC(=O)OCC(COC(C)=O)(COC(C)=O)NCc1ccc2ccc3cccc4ccc1c2c34 [Example 15, 2-Acetoxymethyl-1,3,-O-diacetyl-2-((1-pyrenylmethyl)amino)-1,3-propanediol]",+60%
8,"CC(C)(CO)NCc1ccc2ccc3cccc4ccc1c2c34 [Example 2B, 2-Methyl-2-((1-pyrenylmethyl)amino)propanol]",+145%
9,"CC(O)CNCc1ccc2ccc3cccc4ccc1c2c34 (stereo not shown) [Example 8, 1-((1-pyrenylmethyl)amino)-2-propanol hydrochloride]",+128%
10,"COCC(C)(CO)NCc1ccc2ccc3cccc4ccc1c2c34 (stereo not shown) [Example 22D, 3-methoxy-2-methyl-2-((1-pyrenylmethyl)amino)-1-propanol methanesulfonate.1/3H2 O]",+130%
11,"CC(CO)NCc1ccc2ccc3cccc4ccc1c2c34 (stereo not shown) [Example 7, 2-((1-Pyrenylmethyl)amino)propanol hydrochloride]",+125%
12,"CCC(CO)NCc1ccc2ccc3cccc4ccc1c2c34 (stereo not shown) [Example 6, 2-((1-Pyrenylmethyl)amino)butanol hydrochloride]",+125%
13,"CC(=O)OCC(C)(COC(C)=O)NCc1ccc2ccc3cccc4ccc1c2c34 [Example 18, 2-methyl-2-(1-pyrenylmethyl)amino)-1,3-propanediol diacetate]",+165%
14,"OCCCNCc1ccc2ccc3cccc4ccc1c2c34 [Example 3, 3-((1-pyrenylmethyl)amino)propanol hydrochloride]",+120%
15,"C[C@H](O)[C@@](C)(CO)NCc1ccc2ccc3cccc4ccc1c2c34 (relative stereo) [Example 20G, (+-)(2R*,3S*)-2-((1-Pyrenylmethyl)amino)-2-methyl-1,3-butanediol hydrochloride]",+177%
16,"CCC(CO)(CO)NCc1ccc2ccc3cccc4ccc1c2c34 [Example 5A, 2-Ethyl-2-((1-pyrenylmethyl)amino)-1,3-propanediol hydrochloride]",+240%
17,"OCC(CO)NCc1ccc2ccc3cccc4ccc1c2c34 [Example 11, 2-((1-Pyrenylmethyl)amino)-1,3-propanediol hydrochloride]",+163%
18,"CC(CO)(CO)NCc1cc2cccc3ccc4cccc1c4c32 [Example 19, 2-methyl-2-((4-pyrenylmethyl)amino)-1,3-propanediol hydrochloride.1/4H2 O]",+145%

# Same assay, conditions: median survival time; intraperitoneal, days 1, 5, 9; active if ≥120%; Optimal Dose (mg/kg): 2A 250; 2B 450; 3 120; 4 200; 5A 303; 6 366; 7 220; 8 300; 1A 300; 10 198; 11 300; 13 220; 15 555; 16 1013; 17B 250; 18 300; 19 40; 20G 125; 21C 168; 22D 180; 23B 18O; hydrochloride
row,SMILES,T/C × 100% (Excluding 30 Day Survivors)
1,"CC(C)(CO)NCc1ccc2ccc3cccc4ccc1c2c34 [Example 2A, 2-methyl-2-((1-pyrenylmethyl)amino)propanol hydrochloride]",+168%
